# Reference: the supplement of paper PMC11417369
# ± gives the standard deviation of the averaged measurements. The list shows a part of the results.
# Tested on: PfAP2-I AP2 domain 3 (GST-tagged)
# Test: gcPBM binding intensity (ln(normalized median fluorescence intensity)); higher = stronger DNA binding
# Outline: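 GST-tagged P. falciparum DNA-binding domains produced in E. coli were incubated for 1 h on an Agilent 4 × 180k array of primer-extended double-stranded 36-bp intergenic genomic probes with negative controls. Binding intensity is the highest Masliner-normalised natural-log median intensity across replicate spots of either probe orientation, with bound protein detected by Alexa488 anti-GST antibody at 488 nm.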
row,Sequence,gcPBM binding intensity (ln)
1,TCACATATATATTAATGTACATATATTTTTTATGTA [XGTACX_site5125],7.52 ± 0.38
2,GATATATCCTATGTTATTTTTATGGTGTAATTTAGT [XGTACX_negctrl_site112],7.88 ± 0.48
3,CAATGTTAACATATTACACACATATGTATATATAAT [CACACA_site8878],7.79 ± 0.53
4,GACAACTCTTTTCATACACACAAAAAAAAAAAAATA [CACACA_site2361],7.74 ± 0.25
5,TTTTTTTTATGTATCACACATAATTTTTTATTATGA [CACACA_site5534],7.63 ± 0.68
6,AGAAAGAAAATATATACACACAAAAAAAAATATATA [CACACA_site1412],7.69 ± 0.54
7,CATCCACAAATATGTACACACATATATAAATATGTA [CACACA_site7407],7.89 ± 0.44
8,ATAATAACAAGGCGCTGTACTGTACCGTTTTTCATA [XGTACX_site6135],7.87 ± 0.63
9,AACAGACAAAGACACACACACATACATACATACATA [CACACA_site6351],8.28 ± 0.55
10,TATCATATTTTTATATGTACATAACATAAAAAAAAA [XGTACX_site2152],7.71 ± 0.2
11,TGATTTGTGCCGATTTGTACACATTTATATATATAT [XGTACX_site2154],9.205 ± 0.049
12,ATTTTTTCATATTCTACACACGTGAACAAATGAGTC [CACACA_site5635],8.14 ± 0.64
13,TACATACATACATACACACACATATATATATATATA [CACACA_site1944],9.68 ± 0.49
14,TTTATATGGATTTTTTTTTAATATTTCTTTTAATTT [TGCATGCA_negctrl_site361],7.33 ± 0.42
15,ATAAAAAAAAAAAATACACACATATATTTATTTATA [CACACA_site6903],7.43 ± 0.47
16,ATATGCTATTTACTAGTGCAAAATATTTAAAATATG [GTGCAC_site9517],10.2 ± 0.42
17,TAAAAAAAAAAAAAAAGTACAAAAAAAATATTTTTT [XGTACX_site7941],7.75 ± 0.45
18,TTAATATAAGCAAATACACACACACCGATATATATA [CACACA_site9269],8.25 ± 0.72
19,GTTGCACAATGTTACACACACAATATAGATCGTTAA [CACACA_site6717],8.15 ± 0.43
20,GGCATGACTATCTGCACACATAAAAATAAGAAATAC [CACACA_site841],8.94 ± 0.19
21,GATTTATACAAATATGTACACACTAATTATATATTA [CACACA_site8045],8 ± 0.53
22,ATAAACAGAAAAAAAAAAAAAAAAAAAAAAAAAAAA [CACACA_negctrl_site143],8.11 ± 0.77

row,Sequence,gcPBM binding intensity (ln)
1,TTTTTTTTCTCACAAAAAATAATTAACAAAAAGGAA [XGTACX_negctrl_site154],7.88 ± 0.31
2,AAATAATATTTTACATGTACATAATAATTATTGGAT [XGTACX_site2783],7.77 ± 0.47
3,ATAAAAATAAAAAACTGTACATACAAGATGTTACAG [XGTACX_site6690],7.49 ± 0.48
4,ATGCTTCCTTAGGAATGTACACACATATATAATATG [XGTACX_site873],7.81 ± 0.61
5,TAAATATTTAAATATTGTACTAGGTATAATTGAATA [XGTACX_site3604],7.65 ± 0.37
6,TTATTGTACTTGCTCGCATGCAATAAAAATATATTA [TGCATGCA_site580],7.93 ± 0.32
7,GTATATATTAAAAAAAAAAAAAAAAAATTAAAATTA [CACACA_negctrl_site572],7.14 ± 0.33
8,TAGACTGGACATTAATGTACATAAATATATATGTAT [XGTACX_site7726],7.68 ± 0.49
9,TATAAGAAAAATAACACACACATAAACATATATACA [CACACA_site2785],7.87 ± 0.42
10,AAAAAAAAAATTCATTGTACATATATATATATATAT [XGTACX_site8346],9.7 ± 0.5
11,GGAATATTAATAAGAGTGCATTTTGTATTCAATATG,9.52 ± 0.13
12,ATAAGAAGAAGAAAAACACACATATGTAGATATATA [CACACA_site7469],7.81 ± 0.65
13,ATATATATATATATATGTACTTATTTATATATTTAT [XGTACX_site7811],9.39 ± 0.93
14,TGGTTATTTATCTTTATTATAAATATTTACAAATAA [CACACA_negctrl_site1773],7.61 ± 0.38
15,TTCTTTTTAAATTACACACACATATATATCTGTATA [CACACA_site5863],8.05 ± 0.59
16,ATGAACATACAATATACACACATATAGATTTATATT [CACACA_site6524],7.68 ± 0.61
17,TCATTATTAATATGTAGTACATTATATGATATGTAT [XGTACX_site8978],7.99 ± 0.071
18,TAAAGGATTTTCGAAGCATGCCACCTGTGACATACT [TGCATGCA_site130],7.42 ± 0.81
19,TTTATACAATTAGACACACACAAAAAGTATATATAT [CACACA_site1082],8.05 ± 0.67
20,CAAATACCCGGACACACACACACAAAAAAAAAAAAA [CACACA_site4441],8.32 ± 0.49
21,ATGGGTATATTTCCACGTACAAAAAATCCGAATTGC [XGTACX_site1490],8.04 ± 0.57
22,ATATAATTACATTGATGTACACGAAATGATTAACAT [XGTACX_site5183],8.78 ± 0.83
